In PubChem BioAssay (NCATS):
Where “and” joins values, the source holds several entries; their conditions need not be identical. Identical values can stand only once. Inconclusive results, whose numbers are uncertain, are shown with a selection of clear calls. For part of these data: A potency beside an inconclusive call is a rough fit, not a confirmed value. Calls of active or inactive are those of the source. Unless noted, the call rests on the fitted dose curve; in most records, active means well fitted curve in the direction sought with a large enough effect; inconclusive means small, poorly fitted or top-dose-only effect, or another doubt; inactive means no such curve, though single readings can be large; an effect the other way counts as inactive or inconclusive.

Key:
[1] = system: Zika virus NS2B-NS3 protease; test: Primary screen GU AMC qHTS for Zika virus inhibitors (AID 1347154);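 further: 0% = no-inhibitor control and -100% = no-enzyme control; nearly all actives have a fitted effect of over 70% in size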
How it was run: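 Unlinked Zika NS2B hydrophilic domain–NS3 protease complex at 25 nM in 10 mM Tris-HCl pH 8.0, 0.01% Tween 20, with an AMC peptide substrate. Fluorescence change (340/450 nm) over 15 min at room temperature, normalized to controls, fitted to 4-parameter Hill.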

[2] = Primary qHTS for small molecule stabilizers of the endoplasmic reticulum resident proteome: Secreted ER Calcium Modulated Protein (SERCaMP) assay (AID 1508630); conditions: SH-SY5Y GLuc-SERCaMP (Gaussia luciferase released on ER calcium loss) secretion, thapsigargin, luminescence; activity change, negative = inhibition: at 38.4 µM (top of the series); further: on the % scale 0 is the no-effect control and ±100 the full control effect
How it was run: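 The SH-SY5Y reporter protocol was run at 3 concentrations up to 38.3 uM (primary) or 11 concentrations (follow-up): 16 h compound, 100 nM thapsigargin for 4 h, then extracellular luciferase luminescence.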

[3] = NFAT Signaling Pathway (AID 444; active means well fitted curve in either direction with a large enough effect, not every such curve was filed as active; inconclusive means small, poorly fitted or top-dose-only effect, or another doubt;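 further: carbachol stimulus at about its EC50 of 1 µM final; on the % scale 0 is the no-effect control and ±100 the full control effect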); conditions: Jurkat NFAT-bla M1, carbachol, beta-lactamase ratio, 5 h; at 7.69 µM (top of the series) unless noted
How it was run: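 Jurkat cells with NFAT-driven β-lactamase reporter and co-expressed M1 receptor, stimulated with carbachol (final 1 uM, ~EC50), compound titration, 5 h at 37 °C. CCF4 loaded 1 h at RT; 460/530 nm ratio gave %activity and AC50.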

[4] = target: 3',5'-cyclic-AMP phosphodiesterase 4B (Homo sapiens) (UniProt Q07343); test: qHTS Assay for Inhibitors of PDE-IV (AID 607; active means well fitted activation curve with a large enough effect in the main read-out, with a control signal flat, not every such curve was filed as active; inconclusive means small, poorly fitted or top-dose-only effect, or effect the other way, or a change in a side signal; further: potency means the concentration at half of the fitted maximal effect); conditions: HEK293 ACTOne CNG channel cells, membrane potential fluorescence; activation (PDE inhibition): at 22.9 µM (top of the series)
UniProt Q07343, sequence (Q07343 whole entry, looked up): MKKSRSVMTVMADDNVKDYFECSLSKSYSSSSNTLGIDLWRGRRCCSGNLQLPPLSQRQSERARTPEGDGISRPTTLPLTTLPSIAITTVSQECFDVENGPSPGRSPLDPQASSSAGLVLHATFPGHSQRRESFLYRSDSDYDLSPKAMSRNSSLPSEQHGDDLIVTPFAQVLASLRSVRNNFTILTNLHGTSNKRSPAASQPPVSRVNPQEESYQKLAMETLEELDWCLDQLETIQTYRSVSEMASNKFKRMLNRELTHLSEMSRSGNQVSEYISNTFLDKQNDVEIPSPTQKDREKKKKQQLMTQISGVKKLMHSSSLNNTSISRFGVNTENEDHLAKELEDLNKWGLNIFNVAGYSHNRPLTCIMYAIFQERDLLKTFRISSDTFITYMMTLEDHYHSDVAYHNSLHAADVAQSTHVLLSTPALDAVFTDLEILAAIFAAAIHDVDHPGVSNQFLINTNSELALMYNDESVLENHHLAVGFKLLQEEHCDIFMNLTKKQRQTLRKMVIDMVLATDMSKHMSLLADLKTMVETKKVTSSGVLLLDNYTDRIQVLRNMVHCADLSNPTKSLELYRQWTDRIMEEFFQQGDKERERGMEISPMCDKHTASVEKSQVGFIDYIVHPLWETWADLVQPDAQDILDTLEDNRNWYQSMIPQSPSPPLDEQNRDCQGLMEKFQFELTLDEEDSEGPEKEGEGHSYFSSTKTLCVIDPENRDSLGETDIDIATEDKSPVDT
How it was run: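 Cell-based read-out of cAMP via a modified cyclic nucleotide-gated channel and membrane potential dye (535/590 nm) in HEK293 cells expressing PDE4 endogenously. Compounds tested up to 22.9 uM final; 100 uM RO 20-1724 reference.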

[5] = target: Cytochrome P450 2D6 (Homo sapiens) (UniProt P10635); test: qHTS Assay for Inhibitors and Substrates of Cytochrome P450 2D6 (AID 891);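 further: luciferin methyl ether substrate demethylated by CYP2D6 with NADPH regeneration; potency means the concentration at half of the fitted maximal effect; nearly all actives have a fitted effect of over 60% in size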
UniProt P10635, sequence (P10635 whole entry, looked up): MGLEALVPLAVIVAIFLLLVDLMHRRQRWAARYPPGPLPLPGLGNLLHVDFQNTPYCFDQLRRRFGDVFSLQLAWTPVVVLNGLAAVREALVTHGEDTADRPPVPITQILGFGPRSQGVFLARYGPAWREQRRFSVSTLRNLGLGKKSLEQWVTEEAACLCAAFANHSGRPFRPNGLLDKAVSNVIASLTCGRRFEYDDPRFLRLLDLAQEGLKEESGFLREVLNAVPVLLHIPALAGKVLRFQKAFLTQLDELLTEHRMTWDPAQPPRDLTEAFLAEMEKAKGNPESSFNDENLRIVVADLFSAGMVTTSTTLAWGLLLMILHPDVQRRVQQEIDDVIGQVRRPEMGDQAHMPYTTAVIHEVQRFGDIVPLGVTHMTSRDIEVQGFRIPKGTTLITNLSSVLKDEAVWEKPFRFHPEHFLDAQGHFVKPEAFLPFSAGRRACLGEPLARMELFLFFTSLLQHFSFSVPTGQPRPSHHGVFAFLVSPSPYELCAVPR
How it was run: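 Luminescent read-out of luciferin formed by 5 nM human CYP2D6 demethylating 30 uM Luciferin-ME EGE (Km level) over 60 min at room temperature after NADPH regeneration addition. Data normalized to full inhibition by 1.43 uM quinidine.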

[6] = qHTS Assay for Identification of Small Molecule Antagonists for NFkB Signaling Pathway (AID 895; active means well fitted inhibition curve with a large enough effect in the signal ratio, with a control signal flat, not every such curve was filed as active; inconclusive means small, poorly fitted or top-dose-only effect, or effect the other way, or a change in a side signal; the % refers to the signal ratio; further: on the % scale 0 is the no-effect control and ±100 the full control effect); conditions: NFkB beta-lactamase reporter cells, FRET ratio 460/530; activity change, negative = inhibition: at 38.3 µM (top of the series) unless noted
How it was run: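 ME-180 NFkB-bla cells (beta-lactamase under NFkB response element), plated overnight, treated with compound then 10 pM TNF alpha (about EC50) for 5 hrs at 37 C. LiveBLAzer FRET read at 460/530 nm emission, 405 nm excitation.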

[7] = qHTS Assay for Identification of Small Molecule Agonists for Thrombopoietin (TPO) Signaling Pathway (AID 917); further: on the % scale 0 is the no-effect control and ±100 the full control effect
How it was run: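 Ba/F3 (mouse) + hTPO receptor + GpIIb-promoter luciferase; IL-3 withdrawn overnight; compound + 26 pM TPO (EC50), 24 hrs, 37 C, 5% CO2; Steadylite luminescence, 10 min RT.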

[8] = qHTS Assay for Identification of Small Molecule Antagonists for Thrombopoietin (TPO) Signaling Pathway (AID 918); conditions: TPO-dependent cell signaling reporter, antagonist mode; activity change, negative = inhibition: at 38.5 µM (top of the series); further: nearly all actives have a fitted effect of over 60% in size
How it was run: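 Luminescence read-out: GPIIb-promoter luciferase in Ba/F3 cells carrying human TPO receptor. Compounds added with 26 pM TPO (EC50), 24 hrs, 37 C, 5% CO2; cells deprived of IL-3 overnight beforehand. Inhibition of signal scored.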

[9] = target: Muscarinic acetylcholine receptor M1 (Rattus norvegicus) (UniProt P08482); test: qHTS Assay for Antagonists of Acetylcholine Muscarinic M1 Receptor: Kinetic Measurement of Intracellular Calcium Response (AID 943); further: potency means the concentration at half of the fitted maximal effect; nearly all actives have a fitted effect of over 75% in size
UniProt P08482, sequence (P08482 whole entry, looked up): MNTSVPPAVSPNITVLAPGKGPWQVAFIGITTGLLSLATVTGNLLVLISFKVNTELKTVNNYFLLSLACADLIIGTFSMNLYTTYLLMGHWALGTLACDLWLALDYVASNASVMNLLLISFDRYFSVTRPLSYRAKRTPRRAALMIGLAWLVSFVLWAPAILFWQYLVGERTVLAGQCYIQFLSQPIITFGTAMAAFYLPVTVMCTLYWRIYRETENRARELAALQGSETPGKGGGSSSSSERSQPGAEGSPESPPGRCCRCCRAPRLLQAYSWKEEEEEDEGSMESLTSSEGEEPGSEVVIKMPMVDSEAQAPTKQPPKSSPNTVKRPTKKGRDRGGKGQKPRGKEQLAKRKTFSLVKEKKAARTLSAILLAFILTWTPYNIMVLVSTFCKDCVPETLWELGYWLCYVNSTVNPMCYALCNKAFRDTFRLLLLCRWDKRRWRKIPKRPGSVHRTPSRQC
How it was run: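 Read-out: peak over basal Fluo-4 fluorescence, kinetic at 1 Hz for 4 min after EC80 carbachol (100 nM final). Rat M1-CHO cells, dye loaded 1 h at 37C, compound added 10 min before agonist.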

[10] = target: Muscarinic acetylcholine receptor M1 (Rattus norvegicus) (UniProt P08482); test: qHTS Assay for Antagonists of Acetylcholine Muscarinic M1 Receptor: Measurement of IP-One Response (AID 944); further: potency means the concentration at half of the fitted maximal effect; nearly all actives have a fitted effect of over 75% in size
[11] = qHTS Assay for Lipid Storage Modulators (AID 1519; calls by dose curve; further: on the % scale 0 is the no-effect control and ±100 the full control effect); conditions: Drosophila S3 cells, BODIPY lipid droplet/cell ratio, laser cytometry, cells loaded with oleic acid; activity change, negative = inhibition: at 57.5 µM (top of the series) unless noted
How it was run: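 Cells seeded at 5,000 per well were treated with compounds over a concentration series and loaded with oleic acid (400 uM, as added). Lipid droplet fluorescence (488 nm excitation, 500-530 nm channel) was read by laser-scanning cytometry and normalized to 20 uM Triacsin C.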

[12] = qHTS for differential inhibitors of proliferation of Plasmodium falciparum line GB4 (AID 1816); conditions: Potency: Plasmodium falciparum GB4 proliferation inhibition;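 further: potency means the concentration at half of the fitted maximal effect; parasite growth measured after 72 h incubation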
[13] = qHTS for differential inhibitors of proliferation of Plasmodium falciparum line D10 (AID 1877);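 further: parasites grown with compound for 72 h before DNA staining; plate controls were vehicle wells for no effect and reference inhibitor wells for full effect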
[14] = qHTS for differential inhibitors of proliferation of Plasmodium falciparum line Dd2 (AID 1882); conditions: Potency: Plasmodium falciparum Dd2 proliferation inhibition; further: potency means the concentration at half of the fitted maximal effect; nearly all actives have a fitted effect of over 65% in size
How it was run: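 RBC culture, 0.3% parasitemia / 2.5% Hct final; cpd added by pin tool in DMSO; 72 h, 37 C, 5% CO2; lysis buffer + SYBR Green I, o/n RT dark; FI 485/535; norm. to artemisinin 0.29 uM and DMSO.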

[15] = qHTS Assay for Modulators of Human Peripheral Myelin Protein 22 (PMP22) Expression/Activity (AID 1967; active means well fitted curve in the direction sought with a large enough effect in the signal ratio; inconclusive means small, poorly fitted or top-dose-only effect, or effect the other way, or a change in a side signal; inactive means no such curve, though single readings can be large or run the other way; the % refers to the signal ratio;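 further: 0% = untreated cells and 100% end not stated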); conditions: Cell-based PMP22 reporter, dual-color luciferase ratio, mouse Pmp22 promoter in mouse Schwann cells; activity change (ratio): at 115 µM (top of the series)
How it was run: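 Mouse MSC80 Schwann line, Pmp22 promoter–CBG68 reporter, EF-alpha–CBR internal control. 24h compound exposure, 37 °C/5% CO2, DMEM + 10% FBS. Readout: corrected green/red luminescence ratio, normalized to untreated cells; concentration-response curves fitted and classified.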

[16] = target: ATP-dependent DNA helicase Q1 (Homo sapiens) (UniProt P46063); test: qHTS Validation Assay for Inhibitors of RecQ-Like Dna Helicase 1 (RECQ1) (AID 2353);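 further: plate controls were DMSO vehicle for no effect and enzyme-free control for full effect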
How it was run: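 RECQ1T1 50 nM; forked duplex (20 bp + 30-nt ss tails) 200 nM, ATP 2 mM final; pH 8.0, 2 mM MgCl2, 2.5 ug/ml poly(dI-dC); 15 min compound preincubation; discontinuous kinetic read over 2 h at RT.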

[17] = target: RecQ-like DNA helicase BLM (Homo sapiens) (UniProt P54132); test: qHTS Validation Assay for Inhibitors of Bloom's syndrome helicase (BLM) (AID 2364); further: potency means the concentration at half of the fitted maximal effect
How it was run: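 50 nM BLM preincubated 15 min at room temperature with compound in pH 8.0 Tris buffer containing 2.5 ug/ml poly(dI-dC); started with 200 nM TAMRA/BHQ-2 forked duplex and 2 mM ATP (final). Unwinding read as TAMRA fluorescence increase, two reads 2 h apart.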

[18] = target: DNA polymerase III PolC-type (Bacillus subtilis (strain 168)) (UniProt P13267); test: qHTS Validation Assay for the Inhibitors of DNA Replication in Gram-Positive Bacteria (AID 485295);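 further: reconstituted holoenzyme with PolC plus beta clamp SSB and primase; PicoGreen fluorescence of double-stranded DNA made on primed circular M13 template; 0% = DMSO wells and -100% = EDTA-quenched background wells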
UniProt P13267, sequence (P13267 whole entry, looked up): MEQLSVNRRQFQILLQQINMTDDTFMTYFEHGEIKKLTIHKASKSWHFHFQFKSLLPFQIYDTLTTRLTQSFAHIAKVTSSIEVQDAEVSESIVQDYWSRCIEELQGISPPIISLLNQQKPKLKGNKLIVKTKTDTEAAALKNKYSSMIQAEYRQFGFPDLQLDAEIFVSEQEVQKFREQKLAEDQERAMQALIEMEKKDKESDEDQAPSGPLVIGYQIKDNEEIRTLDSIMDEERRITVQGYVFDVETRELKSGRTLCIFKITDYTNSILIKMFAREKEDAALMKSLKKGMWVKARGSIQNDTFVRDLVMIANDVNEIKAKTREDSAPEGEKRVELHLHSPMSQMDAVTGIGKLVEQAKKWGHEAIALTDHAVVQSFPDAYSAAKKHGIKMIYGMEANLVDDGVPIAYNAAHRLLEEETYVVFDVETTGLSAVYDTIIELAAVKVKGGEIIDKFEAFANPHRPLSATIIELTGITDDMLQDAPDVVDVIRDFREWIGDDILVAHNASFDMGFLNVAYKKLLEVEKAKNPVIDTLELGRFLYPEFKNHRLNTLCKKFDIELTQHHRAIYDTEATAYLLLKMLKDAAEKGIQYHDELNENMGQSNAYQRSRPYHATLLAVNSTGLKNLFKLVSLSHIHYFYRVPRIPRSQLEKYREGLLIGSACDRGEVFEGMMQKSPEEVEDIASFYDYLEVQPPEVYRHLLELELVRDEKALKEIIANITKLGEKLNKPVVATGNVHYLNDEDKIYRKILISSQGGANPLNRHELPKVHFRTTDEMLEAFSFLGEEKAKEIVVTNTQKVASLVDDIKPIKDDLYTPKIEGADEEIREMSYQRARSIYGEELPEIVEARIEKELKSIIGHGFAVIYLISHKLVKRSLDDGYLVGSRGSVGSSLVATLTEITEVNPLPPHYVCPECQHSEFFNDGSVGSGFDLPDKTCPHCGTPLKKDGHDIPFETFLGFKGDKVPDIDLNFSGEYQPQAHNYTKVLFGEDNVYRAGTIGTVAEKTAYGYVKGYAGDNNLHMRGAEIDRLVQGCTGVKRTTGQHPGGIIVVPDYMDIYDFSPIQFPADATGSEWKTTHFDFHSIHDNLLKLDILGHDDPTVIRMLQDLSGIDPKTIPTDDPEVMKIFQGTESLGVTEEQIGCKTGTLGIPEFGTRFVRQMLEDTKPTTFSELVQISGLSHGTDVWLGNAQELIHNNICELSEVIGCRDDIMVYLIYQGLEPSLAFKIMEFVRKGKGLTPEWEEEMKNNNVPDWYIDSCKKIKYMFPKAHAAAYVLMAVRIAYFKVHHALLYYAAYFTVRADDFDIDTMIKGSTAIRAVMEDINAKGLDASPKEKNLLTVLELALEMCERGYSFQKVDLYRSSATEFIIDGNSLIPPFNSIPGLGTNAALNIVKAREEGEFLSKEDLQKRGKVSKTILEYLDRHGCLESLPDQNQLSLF
How it was run: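 PicoGreen fluorescence (ex 480–485/em 535–540 nm) reports dsDNA synthesized on ssM13Gori template with dNTPs/NTPs. Enzyme: holoenzyme rebuilt from purified PolC, beta subunit, SSB and primase. Compound preincubated before substrate addition; RT throughout.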

[19] = Quantitative high throughput screen for delayed death inhibitors of the malarial parasite plastid, 48 hour incubation (AID 488752); further: on the % scale 0 is the no-effect control and ±100 the full control effect; nearly all actives have a fitted effect of over 65% in size
How it was run: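 Luciferase-expressing P. falciparum in RBCs, 2% Hct, 0.1% parasitemia final; RPMI 1640 + 0.5% Albumax; 48 h, 37 C, 5% CO2; luminescence readout, signal drop = growth inhibition.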

[20] = Nrf2 qHTS screen for inhibitors: Validation (AID 493153; active means well fitted inhibition curve with a large enough effect in the main read-out, with a control signal flat, not every such curve was filed as active; inconclusive means small, poorly fitted or top-dose-only effect, or effect the other way, or a change in a side signal; inactive means no such curve, though single readings can be large or run the other way; further: % of control where 0% means no effect)
How it was run: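 Concentration-response test in A549 ARE_Fluc reporter cells (5% FBS OPTI-MEM), compound exposure 18-24 h at 37°C, 5% CO2. Cell viability measured first by CellTiter-Fluor fluorescence; ARE-driven luciferase luminescence then measured as Nrf2 activity.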

[21] = Validation screen for small molecules that induce DNA re-replication in SW480 colon adenocarcinoma cells (AID 504364); further: 0% is about no effect
How it was run: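 Read-out: total Hoechst intensity of nuclei by fluorescence scanning imager; hits raise the fraction of nuclei with elevated DNA content. Cells received compound for 48 hr at 37 C before a 40 min stain.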

[22] = target: Peptidyl-prolyl cis-trans isomerase NIMA-interacting 1 (Homo sapiens) (UniProt Q13526); test: qHTS Validation Assay to Find Inhibitors of Pin1 (AID 504536; active means well fitted inhibition curve with a large enough effect in the polarisation, with a control signal flat, not every such curve was filed as active; inconclusive means small, poorly fitted or top-dose-only effect, or effect the other way; the % refers to the polarisation;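 further: 0% = full Pin1 enzyme wells and -100% = no-enzyme wells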)
UniProt Q13526, sequence (Q13526 whole entry, looked up): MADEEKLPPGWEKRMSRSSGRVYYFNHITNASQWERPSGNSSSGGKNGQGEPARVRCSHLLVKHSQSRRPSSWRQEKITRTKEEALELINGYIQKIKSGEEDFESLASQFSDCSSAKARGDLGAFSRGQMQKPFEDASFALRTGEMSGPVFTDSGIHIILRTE
How it was run: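 Fluorescence polarization competition: compounds (titration) displace HiFluor-488-labeled Pin1-1b peptide from Pin1 (0.3 uM final) in pH 7.5 HEPES buffer with DTT, 10 min at room temperature; %Activity normalized to no-enzyme wells, curves fitted.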

[23] = target: Voltage-gated inwardly rectifying potassium channel KCNH2 (Homo sapiens) (UniProt Q12809); test: qHTS Assay for Small Molecule Inhibitors of the Human hERG Channel Activity (AID 588834);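 further: potency means the concentration at half of the fitted maximal effect; lower thallium flux fluorescence means stronger hERG block; nearly all actives have a fitted effect of over 50% in size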
UniProt Q12809, sequence (Q12809 whole entry, looked up): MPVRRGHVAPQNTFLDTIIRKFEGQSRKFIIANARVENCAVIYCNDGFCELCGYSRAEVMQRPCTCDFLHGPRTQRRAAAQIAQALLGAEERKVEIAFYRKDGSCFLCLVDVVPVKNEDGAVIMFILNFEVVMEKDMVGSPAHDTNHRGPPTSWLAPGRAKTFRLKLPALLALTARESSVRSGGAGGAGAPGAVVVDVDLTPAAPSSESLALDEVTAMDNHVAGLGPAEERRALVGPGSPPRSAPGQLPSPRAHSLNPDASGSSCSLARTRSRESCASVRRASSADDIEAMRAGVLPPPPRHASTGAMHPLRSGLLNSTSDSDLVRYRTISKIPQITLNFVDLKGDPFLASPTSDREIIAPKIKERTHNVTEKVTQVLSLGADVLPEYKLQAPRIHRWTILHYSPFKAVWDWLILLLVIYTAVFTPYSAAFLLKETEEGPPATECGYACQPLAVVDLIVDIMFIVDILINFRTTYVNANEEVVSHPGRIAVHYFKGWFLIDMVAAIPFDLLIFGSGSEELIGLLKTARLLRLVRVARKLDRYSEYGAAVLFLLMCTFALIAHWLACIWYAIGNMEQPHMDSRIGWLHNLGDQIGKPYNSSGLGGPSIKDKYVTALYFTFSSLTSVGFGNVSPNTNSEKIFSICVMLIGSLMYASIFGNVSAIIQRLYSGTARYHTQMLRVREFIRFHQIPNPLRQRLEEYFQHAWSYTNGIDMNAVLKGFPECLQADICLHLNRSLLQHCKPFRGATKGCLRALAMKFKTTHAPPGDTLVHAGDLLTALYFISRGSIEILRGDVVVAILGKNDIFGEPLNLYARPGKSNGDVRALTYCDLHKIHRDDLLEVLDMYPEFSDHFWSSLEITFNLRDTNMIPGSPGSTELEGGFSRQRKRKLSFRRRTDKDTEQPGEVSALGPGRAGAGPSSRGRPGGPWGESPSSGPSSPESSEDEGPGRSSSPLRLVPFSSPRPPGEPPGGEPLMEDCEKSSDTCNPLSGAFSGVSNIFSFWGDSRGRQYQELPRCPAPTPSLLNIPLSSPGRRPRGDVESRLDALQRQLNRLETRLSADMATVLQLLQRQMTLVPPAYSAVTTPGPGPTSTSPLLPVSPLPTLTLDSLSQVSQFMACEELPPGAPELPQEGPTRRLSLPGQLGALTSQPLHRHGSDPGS
How it was run: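 Thallium-flux (FluxOR) read-out on FDSS: fluorescence read 10 s before and 2 min after stimulation buffer. hERG-BacMam-transduced U2OS cells, compound exposure about 10 min. AC50 by standard Hill equation.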
Tags describe the fitted curve by direction and shape.

NCCc1cccc(O)c1
inactive: Potency [1] | Potency [2]

CCCN(CCC)[C@@H]1CCc2ccc(O)cc2C1
active: Potency [5] 794 nM | Potency [9] 5.01 µM and 282 nM | Potency [10] 5.01 µM and 3.98 µM | Potency [12] 14100 nM | Potency [23] 2510 nM
inconclusive: activity change, negative = inhibition [3] -52.6% [inhibitor] [at 38 µM] and -45.6% [inhibitor] [at 38 µM] | Potency [4] 1900 nM [activator, single point] | activity change, negative = inhibition [8] -12.4% [phenotype inactive] and -34.2% [phenotype inactive] | Potency [14] 12600 nM [inhibitor, single point] | Potency [17] 0.8 nM [inhibitor, full curve, poor fit]
inactive: Potency [6] | Potency [7] | Potency [11] | Potency [13] | Potency [15] | Potency [16] | Potency [18] | Potency [19] | Potency [20] | Potency [21] | Potency [22] | Potency [1]
